Each structure is given as a SMILES string. In all, about 150,000 compounds went through this assay and about 540 (0.36%) showed an effect of 50% or more. This is one part of the list.

This test concerns Plasmodium falciparum. The experiment in a line: Primary screen in NF54 nanoGlo assay, in single point, at 2uM, 72h; a lower Z score goes with more inhibition. Type of test: functional, Erythrocyte. Particulars: timepoint 72 hour.
`Cc1cccc(CN2CCn3c(n[nH]c3=O)C2=O)c1`: the “% Inhibition” value was -3% and the Z score is reported as 0.3.
On to `COc1ccc(CN2C[C@H](C(=O)O)[C@@H](c3cccnc3)C2)c(F)c1`, for which the “% Inhibition” value is on record as -17% and the Z score was determined as 3.44.
As for `Cn1cc(CN2CCCCCC2CC(O)c2ccco2)cn1` (stereo unspecified), the “% Inhibition” value is 5% and the Z score is listed as -0.43.
Regarding `Cc1cc(NC(=O)N(C)CCN2C[C@@H](C)O[C@@H](C)C2)ccn1`, the “% Inhibition” value is reported as 4% and the Z score was -0.6.
The corresponding values for `c1cncc(-c2noc(-c3cc(-c4cccs4)[nH]n3)n2)c1` are 7% and -0.83.
The corresponding values for `CC(C)(C(=O)Nc1nnc[nH]1)C(F)F` are -2% and 0.24.
Taken in the same sequence, the figures for `COc1cccc(C(=O)N2CCC3(CC2)OCC(C(=O)NCC2CCCO2)N3C(=O)c2ccc(F)cc2)c1` (stereo unspecified) were -6% and 0.99.
Regarding `O=C1CN(c2ccc(OC(F)F)nn2)CCCN1`, the “% Inhibition” value was -5% and the Z score is on record as 0.68.
The corresponding values for `CCC(=O)N1CC(C(=O)NCc2ccccn2)C(c2cccc(OC)c2)C1` (stereo unspecified) are -14% and 1.53.
Taken in the same sequence, the figures for `COCCN(Cc1ccsc1)C(=O)Nc1cc2c(cc1C)OCCO2` were 4% and -0.75.
Taken in the same sequence, the figures for `O=C(CC1=CCCCC1)N(Cc1ccccn1)c1ccncc1` were -8% and 1.33.
As to `NC(=O)c1ccc(N[C@@H](C(=O)N2CCCC2)c2ccccc2)cc1`, the “% Inhibition” value is -8% and the Z score turned out to be 1.15.
The corresponding values for `C[C@H]1CN(Cc2cnc(NCc3ccccc3)nc2)CC[C@]1(O)C1CC1` are -3% and 0.43.
The corresponding values for `O=C(c1cccc(O)c1)N1CCC(OCc2ccccc2F)CC1` are 34% and -4.57.
The corresponding values for `COc1cc(C(=O)N(Cc2ccccc2)S(=O)(=O)c2cccs2)ccc1OC(F)F` are 10% and -1.29.
As to `O=C(c1ccc(C(F)(F)F)cc1)N1CCN=C1N1CCCCC1`, the “% Inhibition” value is recorded as -6% and the Z score was 0.56.
The corresponding values for `CC(C(=O)N(C)C)S(=O)(=O)N1CCNC(=O)C1Cc1nc2ccccc2o1` (stereo unspecified) are 31% and -3.5.
The corresponding values for `CC(C)Oc1cccc(C(=O)[C@H]2CCCN(C3CCN(Cc4ccccn4)CC3)C2)c1` are -18% and 1.71.
The corresponding values for `N#Cc1cccnc1N1CCC[C@H](c2cc3ccccc3[nH]2)C1` are -10% and 0.93.
Consider `CC(CC(=O)N1CC2CCC1C(C(=O)O)C2)C(F)(F)F` (stereo unspecified), for which the “% Inhibition” value was -4% and the Z score was 0.49.
The corresponding values for `CCOCCCN1C(=O)c2c(NC(C)=O)c3cc(F)ccc3n2C[C@@]1(C)C(=O)NC1CCCC1` are -8% and 0.75.
Taken in the same sequence, the figures for `CS(=O)(=O)Cc1noc(CN2CCCC3(CCCCCC3)C2)n1` were 10% and -1.41.
The corresponding values for `Cc1cc(CN(C)C[C@H]2C[C@@H](NC(=O)OC(C)(C)C)C2)no1` are -2% and 0.25.
